This sample is rich in variants without activity.
B1: TPR 5TU (parent)
chain: GGAUCUUCUCGAUCUAACAAAAAAGACAAAUCUGCCACAAAGCUUGAGAGCAUCUUCGGAUGCAGAGGCGGCAGCCUUCGGUGGCGCGAUAGCGCCAACGUUCUCAACUAUGACACGCAAAACGCGUGCUCCGUUGAAUGGAGUUUAUCAUG

Variants of: B1
Experiment: polymerase ribozyme fitness, log enrichment relative to wild type (log ratio); higher = more active; in vitro selection for triplet polymerase activity
How it was run: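 For each subunit of a heterodimeric triplet polymerase ribozyme, a mutant library was built by PCR and transcribed, then taken through a single in vitro selection round in triplicate. Selection involved annealing to a biotinylated primer, the partner subunit and triplets, incubation frozen at −7 °C, gel excision of extended constructs, capture on streptavidin beads and RT-PCR. Genotypes were retained after Illumina sequencing of inputs and outputs only with ≥10 input reads and ≥1 read in each output. Fitness is defined as the logarithm of a genotype's enrichment relative to wild-type enrichment, using inverse-variance-weighted averages across replicates, with the logarithm taken to base 2.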

Polymerase ribozyme fitness (log ratio), ≤ -4.2:
A28G U33A C87G G117U G136C
C27U C38A C54U G58A C93A A107C A122G G128A
A28C G80C C87G
C27U G68U A107G G124U
A28U C54A U55A U101G U111A
C27U C43G
A28C G58U A113G A119U
C27U G71U G133A U146G
A28C A47C G62C C72U C76A C93G C99A
A28G C57A A73G C87U U139A
A28C G50U C54G G83A C95U
C27U A29U G58C G94A
C27U A40G U45A A64C G84A A97U G133A
C27U A49C G88A U111G
A28G G34U A41G C93G
A28G U31A U55A G68U A91U C116U C118G C123G
A28U A37C C87A G117A G140C
A28C A37U A40C G59C A115U
C27U U33G G42C U44A G59C C93A G94U
A28C C76U C85U G88C C99G
A28C U44G U53A C85G
A28G A49C C96U C132U
C27G U55G A73C G84A G86A C95G
C27U C79G G83U A107C C125U U144G
A28C U55A G58A G81A
A28C C38G A39C G74U G141U
C27U A30G A52C
A28U A52C G94U C96G
A28C G46C G84A C85U C96U C116U C149U
A28U A29U U44A C57G A91G C93A G112A C118U G141C
A28C C35U U77C A97G C123U C132G U134A
C27U U33C A49C G94A A110U A119U
A28C C54A U82A
A28U A147C U151C G152C
A28G A52U C57A C72G G86C C96U
A28C C87U
A28C U78G
C27G G71A
C27U C38A U45A G48C A52C C85U
C27U C43G G46U A52G A64G C85U C132U
A28C C54G G59A C96G U111A G143U
A28U A30C C43G U78A G92A U146A C149U
A28G G68C C87U U90G C116A G117A G128C G133U U139A G143A
A28G U61A C72G C87G
A28C A41U C43U G46C C85A U130G U135C
A28G G50C C51U G80C C96G G140U G143A
C27U A91G C95A A110C A137U
A28G G88U G92A A98G G133U U144A
A28C A30U G86A
A28G A73G C87G A98G U102G
A28G U31G A37C C54G G84U A98G A115U C123G C125U
C27U G86U A115C A142U
A28U A37C U44A A106U A119G
A28G C38A G58C G62C U77A C96A C125G
C27U U55A G83A C95A C96A A113G G143C
C27U U56A G84U G86C C114G U145A
A28C C35U U61A G124C
A28U C36G A107U U148A
A28C A52U C87U
A28C G81C C87A A120U G126A
A28C C32U C69G G83U A147G
A28G U55A G133C U135A
C27G G70A G86U C99G
A28C A60G A64G G67C G80U C85A
A28U C43A G86U
C27U U33G C96U G126A G143C U151G
C27U A39U G59A C79G C95G
A28C A37G A41C C57G A73U
C27G U61A G67A G86U C108A
A28C C38U G48C C54A A60U C76A C93G G140U
A28U A40G U55A G92C U102G A115U
A28G U82G G140C
A28C C57U G84A C96U G124U
A28G C95U C103G C114U A142C
A28C G65U C85U
C27U U56G C79A C85G
A28U A41C A52G G81A U90C G126U C149U
A28G A41C A52G C87U U90A

Polymerase ribozyme fitness (log ratio), -3.75:
A28C

Polymerase ribozyme fitness (log ratio), -2.24:
A28G

Polymerase ribozyme fitness (log ratio), -3.94:
C27U G50U U55A C96A A110G G133U

Polymerase ribozyme fitness (log ratio), -3.38:
A28U

Polymerase ribozyme fitness (log ratio), -3.98:
C27U C51U U53A U101G

Polymerase ribozyme fitness (log ratio), -3.62:
A28G U53A

— the RNAGym collection of RNA variant scans (doi:10.1073/pnas.2313332121)
